# The list shows a part of the results. Single values of this set are uncertain.
# T1: PEX14_Pex14__O75381_16_84
# T1 chain: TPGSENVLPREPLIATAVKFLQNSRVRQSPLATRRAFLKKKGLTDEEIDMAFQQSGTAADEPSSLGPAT
# T2: PIK3R1_SH3_1_P27986_6_78
# T2 chain: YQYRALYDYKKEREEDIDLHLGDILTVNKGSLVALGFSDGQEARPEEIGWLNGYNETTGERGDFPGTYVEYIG
# T3: RDX_FERM_1_P35241_5_295
# T3 chain: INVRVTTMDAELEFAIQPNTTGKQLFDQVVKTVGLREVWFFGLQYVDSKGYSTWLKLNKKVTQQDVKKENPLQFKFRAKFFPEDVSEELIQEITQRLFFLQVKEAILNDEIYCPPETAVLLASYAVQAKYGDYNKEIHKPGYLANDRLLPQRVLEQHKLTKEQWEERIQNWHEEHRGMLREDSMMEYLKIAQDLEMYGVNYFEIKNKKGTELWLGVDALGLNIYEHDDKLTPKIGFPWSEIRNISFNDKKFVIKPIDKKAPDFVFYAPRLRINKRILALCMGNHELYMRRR
# T4: TLN2_PTB__Q9Y4G6_312_417
# T4 chain: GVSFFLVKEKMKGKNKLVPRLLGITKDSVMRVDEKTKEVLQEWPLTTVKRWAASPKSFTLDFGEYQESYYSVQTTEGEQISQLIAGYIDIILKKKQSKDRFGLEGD
# Target: T1, PEX14_Pex14__O75381_16_84
# Experiment: mutation enrichment score (mutant vs wild-type peptide binding to bait); baits are purified protein domains named by gene / domain / UniProt id / residues; peptides come from disordered regions of human proteins; higher = mutation enhances binding relative to wild type
# Conditions: number of wild-type / mutant comparisons summed (bounds the score): 6; paper call: no_effect; wild-type window: …
row,Binder,mutation enrichment score
1,VEEMRSRVVLGEFGVRNVHTADFPGNYSGYDDAWDQDRFEK [T27A T27A],-1.4
2,AGPPPPPPPPHPHARIKLENRLDYGSAWAAAAAQCRYGDLA [P392R P392R],-5.8
3,QKKLMIKQGLLDKHGKPTDSIPATWKQEYVDYSESAKKEVV [T408I T408I],-2.3
4,ASDCQLPRWHMNDFFHSFLIEFRVLCGEWIETMWDCMEVAG [V944E V944E],2
5,AVEEMRSRVVLGEFGVRNVHITDFPGNYSGYDDAWDQDRFE [T26I T26I],-0.96
6,RISIIPQDPILFPGSLRMNLNLLQEHSDEAIWAALETVQLK [D1361N D1361N],-5
7,RISIIPQDPILFPGSLRMNLYLLQEHSDEAIWAALETVQLK [D1361Y D1361Y],-4
8,SRVVLGEFGVRNVHTTDFPGIYSGYDDAWDQDRFEKNFRVD [N32I N32I],-4.7
9,ADKVFTYIFILEMLLKWVAYDYQTYFTNAWCWLDFLIVDVS [G1275D G1275D],2
10,GGSGGGVPEQEDSVLFRRGTDQSDDSDIWDDTALIKAYDKA [G26D G26D],-1
11,MRSRVVLGEFGVRNVHTTDFSGNYSGYDDAWDQDRFEKNFR [P30S P30S],3.5
12,PKLWMMKGQIEEQKEMMEKAWEAYNQGLKKCPHSTPLWLLL [R729W R729W],3
13,QGFRLVPFLTELRAVMDWVWMDTTLSLSSWICVEDIYAHIF [T2356M T2356M],-0.48
14,EFGNVEAQSRFIFFVDIWTTELDLKWRYKMTIFITAFLGSW [V72E V72E],-3
15,LQQQNKRPRTRITDDQLRVLWQYFDINNSPSEEQIKEMADK [R2161W R2161W],6
16,SSDINNMPLQELSNALMAAEWFKEHRDTALYKSLSVPAAST [R1240W R1240W],5
17,EHDWREAQDSRQELCQKLHAMQGELQWAEELRDQYLQEMED [V342M V342M],-4.8
18,PFLVQRTVARQVALVECVGKDRYGEVWRGLWHGESVAVKIF [G211D G211D],5
19,MPAWGAPFLLWATAEATKDCPSPCTCR [L7P L7P],-4

# Target: T2, PIK3R1_SH3_1_P27986_6_78
# Experiment: as above
# Conditions: number of wild-type / mutant comparisons summed (bounds the score): 9; paper call: no_effect; wild-type window: …
row,Binder,mutation enrichment score
1,EMGPKLQARETPSLPTPIPLKPKEEPKEAPAPEPQPGSQAQ [Q222K Q222K],-2

# Target: T1, PEX14_Pex14__O75381_16_84
# Experiment: as above
# Conditions: number of wild-type / mutant comparisons summed (bounds the score): 12; paper call: no_effect; wild-type window: …
row,Binder,mutation enrichment score
1,AGPPPPPPPPHPHARIKLENSLDYGSAWAAAAAQCRYGDLA [P392S P392S],-3
2,CPKISLTVAAKELSVSDTDVLEVSWTDNGTFNLSEGYTPQT [S309L S309L],3
3,KKLMIKQGLLDKHGKPTDSTLATWKQEYVDYSESAKKEVVA [P409L P409L],0.87
4,YHNEEDEEEDGGEEGMDEQYWQICNMYTMYSMMNVGQTAEK [R298W R298W],3
5,EISSDDGFQICAESIEDAWKLLTDKVQEARSNARLKQLSFA [S3692L S3692L],1
6,PGAPGSERILLDILEHDWREVQDSRQELCQKLHAVQGELQW [A328V A328V],4
7,GNSIYIRPYITTPGGTTRQTKQHSGWVSQFNPMNPQQVYQP [Q230K Q230K],-3
8,MGLVDQLVEPLGPGLKPPEEWTIEYLEEVAITFAKGLADKK [R235W R235W],4

# Same assay, conditions: number of wild-type / mutant comparisons summed (bounds the score): 12; paper call: diminished; wild-type window: …
row,Binder,mutation enrichment score
1,DKHGKPTDSTPATWKQEYVDNSESAKKEVVAEVVKAPQVVA [Y419N Y419N],-9
2,KVNTLSKELHSEFSEVMNEICASDQIRSAVLISSKPGCFIA [W80C W80C],-10

# Same assay, conditions: number of wild-type / mutant comparisons summed (bounds the score): 18; paper call: enhanced; wild-type window: …
row,Binder,mutation enrichment score
1,GDQEPEAVLAMLRSLDLEGLWSTLAESSDHVEKSPQSLLQD [R785W R785W],8
2,TIMEEKERAYTLEEEAVSVQWEEEYEEYEEYDYKEFEEYEP [R10668W R10668W],7

# Target: PDCD6IP_Bro__Q8WUM4_1_359
# Experiment: as above
# Conditions: number of wild-type / mutant comparisons summed (bounds the score): 5; paper call: no_effect; wild-type window: …
row,Binder,mutation enrichment score
1,LDPTVLPLYSLGPSGQLAETLAEVFQALEQLGHQAFRPGQE [P466L P466L],2

# Target: T2, PIK3R1_SH3_1_P27986_6_78
# Experiment: as above
# Conditions: number of wild-type / mutant comparisons summed (bounds the score): 18; paper call: enhanced; wild-type window: …
row,Binder,mutation enrichment score
1,LSPVRSPTPPAAGFQPLLNGRLVPVPPTTPAPGVQLDVEAL [S719R S719R],13

# Target: T3, RDX_FERM_1_P35241_5_295
# Experiment: as above
# Conditions: number of wild-type / mutant comparisons summed (bounds the score): 6; paper call: no_effect; wild-type window: …
row,Binder,mutation enrichment score
1,RISIIPQDPILFPGSLRMNLYLLQEHSDEAIWAALETVQLK [D1361Y D1361Y],3

# Target: T1, PEX14_Pex14__O75381_16_84
# Experiment: as above
# Conditions: number of wild-type / mutant comparisons summed (bounds the score): 6; paper call: enhanced; wild-type window: …
row,Binder,mutation enrichment score
1,CQQFSLPENIQLSLFSASFLWNINEYLAVVDAPPLDLRFNP [R136W R136W],6

# Same assay, conditions: number of wild-type / mutant comparisons summed (bounds the score): 12; paper call: enhanced; wild-type window: …
row,Binder,mutation enrichment score
1,IDNGKQREFESRLADALQELWAQHEDQVEQYKKELEKTYSA [R249W R249W],9
2,LGWYMVKSGLEEKSDSHDIPWVSQYRLAAHLGSALVLYCAS [R217W R217W],8
3,DEHGIDPSGNYVGDSDLQLEWISVYYNEASSHKYVPRAILV [R46W R46W],10
4,VAQDELVTFSEELANLYHHVWMCNNETPNRVMLDYYREGQG [C542W C542W],6

# Target: T2, PIK3R1_SH3_1_P27986_6_78
# Experiment: as above
# Conditions: number of wild-type / mutant comparisons summed (bounds the score): 18; paper call: diminished; wild-type window: …
row,Binder,mutation enrichment score
1,YAPLLGVPPAVRPTPCAPLAKCKGSLLDDSAGKSTEDTAEY [E289K E289K],-13
2,RAVNKAGESEPSEPSDPVLCWEKLYPPSPPRWLEVINITKN [R15005W R15005W],-9

# Target: T4, TLN2_PTB__Q9Y4G6_312_417
# Experiment: as above
# Conditions: number of wild-type / mutant comparisons summed (bounds the score): 6; paper call: no_effect; wild-type window: …
row,Binder,mutation enrichment score
1,QGFRLVPFLTELRAVMDWVWMDTTLSLSSWICVEDIYAHIF [T2356M T2356M],3.7

# Target: PDCD6IP_Alix-V-domain__Q8WUM4_360_702
# Experiment: as above
# Conditions: number of wild-type / mutant comparisons summed (bounds the score): 5; paper call: no_effect; wild-type window: …
row,Binder,mutation enrichment score
1,QGTGVTTYAVHPGVVRSELVLHSSLLCLLWRLFSPFVKTAR [R239L R239L],-5
2,QGTGVTTYAVHPGVVRSELVQHSSLLCLLWRLFSPFVKTAR [R239Q R239Q],-5
3,LSRTVNGYDTSGQRYSPYPQLTAGYQGLLAIVKAAVSSSST [H95L H95L],4.9
4,TSLQNDLQEVPKLYPEFPPKYMCEKLPEPQSFSSAPQHAEV [D121Y D121Y],4.7

# Target: PPIA_full-length__P62937_1_165, P62937
# Experiment: as above
# Conditions: number of wild-type / mutant comparisons summed (bounds the score): 18; paper call: enhanced; wild-type window: …
# Chain of PPIA_full-length__P62937_1_165, P62937 (P62937 whole entry, looked up): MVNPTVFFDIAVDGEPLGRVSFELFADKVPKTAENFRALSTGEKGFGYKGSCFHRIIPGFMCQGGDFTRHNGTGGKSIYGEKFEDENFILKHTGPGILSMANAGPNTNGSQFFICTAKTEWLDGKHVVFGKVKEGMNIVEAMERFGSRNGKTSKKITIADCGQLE
row,Binder,mutation enrichment score
1,LGWYMVKSGLEEKSDSHDIPWVSQYRLAAHLGSALVLYCAS [R217W R217W],14

# Target: T2, PIK3R1_SH3_1_P27986_6_78
# Experiment: as above
# Conditions: number of wild-type / mutant comparisons summed (bounds the score): 9; paper call: enhanced; wild-type window: …
row,Binder,mutation enrichment score
1,KEFERLSSPLIVEIVRRKQQLPPRTPLDQPVDIGTSLIQDM [P635L P635L],7

# — the supplement of paper PMC11369174, “Proteome-scale characterisation of motif-based interactome rewiring by disease mutations” (Molecular Systems Biology, 2024)
